This note sets out measurements from article PMC4336329 (PLoS ONE, 2015).

The structures appear in SMILES notation. Screen size: about 310,000 compounds; about 14,000 (4.5%) showed an effect of 50% or more. Effects have a minus sign here. The list shows a part of the results.
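Note: peak tail current of the secondary pulse compared with the same well before compound.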

The assay deals with human ether-à-go-go-related gene (hERG) potassium channel (human, UniProt Q12809). The experiment in a line: primary screen, population patch clamp on CHO cells stably expressing hERG.
human ether-à-go-go-related gene (hERG) potassium channel, sequence (Q12809 whole entry, looked up): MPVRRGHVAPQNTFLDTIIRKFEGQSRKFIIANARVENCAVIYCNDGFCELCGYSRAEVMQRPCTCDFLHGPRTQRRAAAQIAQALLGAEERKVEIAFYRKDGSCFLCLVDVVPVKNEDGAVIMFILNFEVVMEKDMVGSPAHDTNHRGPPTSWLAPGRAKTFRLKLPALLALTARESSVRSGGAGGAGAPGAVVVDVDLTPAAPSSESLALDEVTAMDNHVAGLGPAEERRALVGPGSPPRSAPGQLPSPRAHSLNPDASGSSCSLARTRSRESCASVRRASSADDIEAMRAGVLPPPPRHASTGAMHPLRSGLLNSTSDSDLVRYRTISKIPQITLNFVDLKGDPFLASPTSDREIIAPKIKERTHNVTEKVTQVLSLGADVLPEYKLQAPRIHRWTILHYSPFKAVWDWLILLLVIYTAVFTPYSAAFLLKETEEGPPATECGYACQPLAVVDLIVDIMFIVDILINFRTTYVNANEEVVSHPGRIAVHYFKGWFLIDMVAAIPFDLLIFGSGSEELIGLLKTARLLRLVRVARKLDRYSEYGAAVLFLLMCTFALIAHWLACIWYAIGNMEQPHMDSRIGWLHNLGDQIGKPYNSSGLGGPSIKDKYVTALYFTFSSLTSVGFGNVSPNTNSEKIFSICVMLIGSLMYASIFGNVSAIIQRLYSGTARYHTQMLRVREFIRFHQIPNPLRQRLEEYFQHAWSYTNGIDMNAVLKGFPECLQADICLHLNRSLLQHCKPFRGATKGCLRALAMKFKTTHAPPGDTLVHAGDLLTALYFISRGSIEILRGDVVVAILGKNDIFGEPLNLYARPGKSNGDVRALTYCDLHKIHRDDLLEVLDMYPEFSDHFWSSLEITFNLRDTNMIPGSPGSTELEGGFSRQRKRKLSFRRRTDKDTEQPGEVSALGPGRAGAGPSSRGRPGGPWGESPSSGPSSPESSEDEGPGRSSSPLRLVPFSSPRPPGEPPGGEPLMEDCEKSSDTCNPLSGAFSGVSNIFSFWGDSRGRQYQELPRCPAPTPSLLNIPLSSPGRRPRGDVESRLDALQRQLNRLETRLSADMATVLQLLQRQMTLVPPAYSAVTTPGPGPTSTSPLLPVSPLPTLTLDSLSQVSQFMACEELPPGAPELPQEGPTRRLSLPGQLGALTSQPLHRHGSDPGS
Take `CC(=O)Nc1ccc2nc(CN3CCN(CC(C)C)C(CCO)C3)ccc2c1` (centres unmarked): the “hERG current change (%, negative = inhibition) at 10uM” value is listed as 17%. Regarding `COCCNC(=O)Nc1ccc(F)cc1`, the “hERG current change (%, negative = inhibition) at 10uM” value is -11%. Consider `O=C(CCSc1nc(-c2ccco2)cc(C(F)(F)F)n1)Nc1ccc2c(c1)OCO2`, for which the “hERG current change (%, negative = inhibition) at 10uM” value is 9.4%. The value for `Fc1cccc(Cl)c1-c1nnc2ccc3ccccc3n12` was 10.3%. In the case of `CC(=O)N1CCc2cc(Br)cc(S(=O)(=O)NCCCN3CCCC(C)C3)c21` (centres unmarked), the “hERG current change (%, negative = inhibition) at 10uM” value is given as -0.85%. As for `CCN(CC)CCN(C(=O)c1ccc(C(=O)c2ccccc2)cc1)c1nc2ccc(OC)cc2s1.Cl`, the “hERG current change (%, negative = inhibition) at 10uM” value is -45.9%. With `O=C(OCC1OC(n2cnc3c(N(C(=O)c4ccccc4)C(=O)c4ccccc4)ncnc32)C(O)C1F)c1ccccc1` (centres unmarked), the “hERG current change (%, negative = inhibition) at 10uM” value is -9.47%.

On to `COc1ccccc1N(CC(=O)N/N=C/c1c(O)ccc2ccccc12)S(C)(=O)=O`, for which the “hERG current change (%, negative = inhibition) at 10uM” value was found to be 18.3%. `CN(C)CCN(C(=O)c1ccco1)c1nc2cc3c(cc2s1)OCCO3.Cl`: the “hERG current change (%, negative = inhibition) at 10uM” value is listed as -32.8%.

As for `Cc1onc(-c2ccccc2Cl)c1C(=O)Nc1ccc(F)c(F)c1`, the “hERG current change (%, negative = inhibition) at 10uM” value is listed as -6.23%. Turning to `Cc1ccc(SCC(=O)c2c(C)nc3ccccn23)cc1`, the “hERG current change (%, negative = inhibition) at 10uM” value came to 30.8%.

For the molecule `O=C(CN(Cc1cccs1)S(=O)(=O)c1ccc(S(=O)(=O)N2CCCCC2)cc1)Nc1ccccc1`, the “hERG current change (%, negative = inhibition) at 10uM” value came to 9.5%.

Take `O=C(Oc1cccc2cccnc12)c1cccc(-n2cnnn2)c1`: the “hERG current change (%, negative = inhibition) at 10uM” value worked out at 14.4%.

For `Cc1ccc(NC(=O)C(Nc2ccccc2)c2ccccc2)cc1` (centres unmarked), the “hERG current change (%, negative = inhibition) at 10uM” value was -5.85%. The value for `CCN(CC)c1ccc(C=O)c(OC)c1` was -9.16%; that for `CC(=O)COc1ccc2c(C)c(C)c(=O)oc2c1` was 0.254%. With `CCN(CC(=O)NC1CCS(=O)(=O)C1)S(=O)(=O)c1c(C)c(C)cc(C)c1C` (centres unmarked), the “hERG current change (%, negative = inhibition) at 10uM” value is -3.39%. In the case of `COc1cccc(/C=N/Nc2ncnc3scc(-c4ccccc4)c23)c1OC`, the “hERG current change (%, negative = inhibition) at 10uM” value was -1.08%. The same measure for `C=CCSc1nc2c(c(=O)[nH]c(=O)n2C)n1C(C)C`: 2.71%; for `CC(C)[C@H]1COCCS(=O)(=O)N1Cc1cccc(Cl)c1`: 0.8%. The same measure for `Cc1cc(C(=O)CN2CCCC(C)C2)c(C)n1-c1ccc(F)cc1` (centres unmarked): 1.6%; for `CC(C)Cn1c2c(c(=O)[nH]c1=O)C(NS(=O)(=O)c1ccc(Cl)cc1)(C(F)(F)F)C(=O)N2` (centres unmarked): 34.2%. The same measure for `COc1ccccc1C(=O)Nc1c2c(nn1-c1ccc([N+](=O)[O-])cc1)CS(=O)(=O)C2`: 11.7%.
